Whole data set: some 33,000 sequences, median “E-score (-0.5 to 0.5)” near -0.016, cut for the highest 2% near 0.32. Some of the results follow.
What follows are sequences tested against T1, Stp1 (UniProt B3LFK1) (assay: PBM E-score (8-mer binding enrichment) (E-score (-0.5 to 0.5)); higher = stronger / more preferred TF binding; most listed sequences are background and not binding sites). Conditions: protein concentration: 200 nM; construct: GST-full length.
T1 sequence: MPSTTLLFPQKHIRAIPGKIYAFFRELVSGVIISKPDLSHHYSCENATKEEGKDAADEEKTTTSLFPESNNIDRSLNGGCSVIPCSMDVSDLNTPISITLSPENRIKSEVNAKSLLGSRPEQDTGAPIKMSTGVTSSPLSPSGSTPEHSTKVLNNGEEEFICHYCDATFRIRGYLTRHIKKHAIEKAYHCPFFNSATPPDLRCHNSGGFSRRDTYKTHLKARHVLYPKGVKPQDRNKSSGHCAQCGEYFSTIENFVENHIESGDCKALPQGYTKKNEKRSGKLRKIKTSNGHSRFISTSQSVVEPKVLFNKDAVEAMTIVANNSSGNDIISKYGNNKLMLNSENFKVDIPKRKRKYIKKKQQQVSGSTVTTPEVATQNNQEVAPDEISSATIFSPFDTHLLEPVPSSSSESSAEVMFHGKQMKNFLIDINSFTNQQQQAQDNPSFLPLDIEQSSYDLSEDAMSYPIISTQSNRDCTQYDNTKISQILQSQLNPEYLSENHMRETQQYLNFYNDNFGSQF
Summary of the method: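 Detection of bound protein used fluorescent anti-GST, with scans normalised by masliner. The proteins were GST-tagged yeast transcription factors applied at about 100-200 nM to universal all-10-mer Agilent arrays made double-stranded by primer extension. Each ungapped eight-base word, pooled with its reverse complement, was scored with an E-score from the Universal PBM Analysis Suite.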

Sequence | PBM E-score
GCTTATCC | -0.0517
ATCAGGAT | 0.0944
CTTCAAAG | 0.0712
CCAGGTAG | -0.222
CAGTCCAC | -0.13
ACATCAAA | -0.00264
CCAAAGGA | -0.101
GGATCGAC | 0.0234
ACCGTACG | 0.151
ACAACCCT | -0.228
ATTTGAAA | 0.111
ATCCGGTA | -0.169
AGAATTTC | -0.103
AGAGATGC | -0.138
ATGTCCAG | -0.126
ATCCGGAT | -0.0475
AACTGCAT | 0.115
TGACGCAA | -0.0616
CCAGCTTA | -0.0984
AATATAAG | 0.32
GGCAGAGA | 0.111
CACCGGCG | 0.193
AATACTGT | 0.249
AACCTGAT | 0.0885

Sequence | PBM E-score
TAATGTGA | -0.024
ATGGAGCC | 0.0188
AGTGGGGG | -0.308
AGAAGTTG | -0.182
AATATGCT | 0.0269
ACGAATCA | 0.0929
CGGCCATC | -0.115
CAATCCTC | -0.155
AAGCACTG | -0.0483
TATAAGCA | 0.154
GTACCTGA | -0.0765
CCCCGGGC | -0.211
CTGTGGAC | -0.287
CAAGGCAC | 0.356
GTAGTTCA | -0.191
CCGTTTGC | 0.284
GAGGACTC | -0.365
AGATATTG | 0.0872
AACTCCTA | -0.0956
ACAGTACG | -0.0233
GATACGAA | -0.0507
CCGCAATA | 0.0622
CAACAAAG | -0.0202
GACGCCGC | 0.453

Sequence | PBM E-score
ACCCGGCA | 0.108
GGTGCTTA | -0.103
ACTCTATC | -0.0604
CAAATCGA | -0.0746
ATACGTTC | -0.0285
GCGTGAAC | -0.00583
CTATGAAG | -0.0397
AAGGTGGC | -0.145
CGTTTGAA | 0.29
CGTACGAG | 0.18
AATAGTAC | 0.0128
CGATGAGC | -0.101
ATCGGGCG | -0.25
ATGCGCAT | 0.144
AGCCTCAC | 0.0764
CCGAATGA | 0.0311
CGGCGCAC | 0.409
AATGAACC | 0.00909
ACCACCGT | -0.123
AATATTCC | 0.202
ACGGGGGG | -0.313
AGTAGGGA | 0.203
CTACGCTC | -0.203
ATCTCCTC | -0.209

Sequence | PBM E-score
AGTAAAAA | 0.13
GCTCTGTA | -0.0805
AAGGGTTA | 0.00685
AAATAATT | 0.174
ATTTTGCG | 0.123
CCGTCGAG | 0.104
GCGCCCCC | -0.129
AGAGAACG | -0.0869
ATGTTTAA | -0.0475
AGGCGCGC | 0.308
CTCCTGCA | -0.244
ATACTGTC | 0.113
AGAAGTCA | -0.00985
GCTTTCAA | 0.0639
CGTGCCAC | 0.232
CATCCGAG | -0.122
GGCACACA | 0.231
CGTGTTAA | 0.108
CGACAGAA | 0.174
GAGTCTAA | -0.0843
ACAAAGGG | -0.154
CGGCTACG | 0.25

From the supplement of paper PMC3334620
